# PubChem BioAssay AID1345083 (National Center for Advancing Translational Sciences (NCATS), 2018)
# Hit rate of the full screen: of about 94,000 compounds, about 6,200 (6.6%) were called active. Inconclusive means that the source gave no clear call. Such entries were picked first, then a sample of the others. Calls come from the whole dose curve; as a rule, active = well fitted inhibition curve with a large enough effect; inconclusive = small, poorly fitted or top-dose-only effect; inactive = flat fitted curve, though single readings scatter. Potencies beside an inconclusive call are fits to weak or partial responses and may not hold up.
# Experiment: Cytotoxic Profiling in HEK 293 Cell Line of Diverse Libraries Using Quantitative High-Throughput Screening; note: nearly all actives have a fitted effect of over 60% in size
# Settings: HEK 293 viability, ATP luminescence (CellTiter-Glo), 48-72 h; activity change, negative = cytotoxicity: at 115 µM (top of the series) unless noted; series mostly up to 115 µM
# Procedure, shortened: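 Viability of HEK 293 cells, plated at 250 cells/well, was judged by cellular ATP after compound treatment for 48 or 72 hr. Luminescence was imaged 10 min after CellTiter-Glo addition at room temperature.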
# % is set by controls: 0 for no effect and ±100 for the full control effect; potency is the fitted concentration of half-maximal effect; tags give direction and shape of the fitted curve.
SMILES,Potency,"activity change, negative = cytotoxicity",outcome
CCC1Oc2ccc(NC(=O)C(C)C)cc2CN(Cc2ccccc2F)C1=O (stereo not drawn),"inconclusive: 50.1 µM [inhibitor, partial curve, poor fit]",–,–
Cc1nc(CCNS(=O)(=O)c2cccs2)no1,–,inactive: 3.74%,–
C=CCc1cc(-c2c(-c3ccccc3)ncn2CCCO)cc(OC)c1O,"inconclusive: 89.1 µM [inhibitor, single point]",–,–
CC(C)(CC(=O)O)CC(=O)N1Cc2[nH]cnc2C[C@H]1C(=O)NC1CCCCC1,–,inactive: -6.2% [at 172 µM],–
CC(C)n1cc2cc(C(=O)NCc3ccccn3)sc2c1,"inconclusive: 39.8 µM [inhibitor, full curve, poor fit]",–,–
O=C(c1ccc2c(c1)OCO2)N1CCN(c2cc(-c3cccs3)[nH]n2)CC1,"inconclusive: 79.4 µM [inhibitor, single point]",–,–
O=C1[C@H]2CN(Cc3cccc(F)c3)C[C@H]2C(=O)N1Cc1ccc2c(c1)OCO2,"inconclusive: 79.4 µM [inhibitor, single point]",–,–
CCN1CCN(C(=O)C2N(c3ccc(OC)cc3)C(=O)C23CCCCC3)CC1 (stereo not drawn),–,inactive: -6.07%,–
COc1cc(F)c(-c2nccn2CC(O)c2ccccc2)cc1OC (stereo not drawn),–,–,inactive
COc1ccc(C(=O)NC2CCCN(c3cc(-c4ccccc4)[nH]n3)C2)cc1OC (stereo not drawn),"inconclusive: 50.1 µM [inhibitor, partial curve, poor fit]",–,–
Cc1noc(C)c1[S+](=O)([O-])NC1CCN(C(=O)c2ccc(-c3cccs3)cc2)CC1,"inconclusive: 50.1 µM [inhibitor, partial curve, poor fit]",–,–
O=C(NC1CCCCCC1)c1nc2sccn2c1-c1ccc(C(F)(F)F)cc1,active: 39.8 µM,–,–
Cc1ccc(CN2CCC3(CC2)COc2ccccc2C(=O)N3)cc1,active: 28.2 µM,–,–
O=C(NC1CCN(c2cc(-c3ccc(Cl)cc3)[nH]n2)C1)c1c[nH]c2ccccc12 (stereo not drawn),"inconclusive: 44.7 µM [inhibitor, partial curve, poor fit]",–,–
O=C(COc1ccccc1)NCCn1cccc1-c1nc(-c2ccc3c(c2)OCO3)no1,–,inactive: -2.74%,–
COc1cc(CN2Cc3ccccc3C2)ccc1OCC(O)CN1CCOCC1 (stereo not drawn),–,inactive: -9.45%,–
COc1ccc(Nc2ccc3c(n2)CN(Cc2ccccc2F)C(=O)CO3)cc1,active: 63.1 µM,–,–
O=C1NC(=NC2CCCCC2)C2(CCCN(Cc3ccc(F)cc3)C2)N1c1cc(F)cc(F)c1 (stereo not drawn),"inconclusive: 79.4 µM [inhibitor, partial curve, poor fit]",–,–
Cc1nc(-c2nc3c([nH]2)CCCNC3=O)cc(=O)[nH]1,–,inactive: -21%,–
Cc1nn(C)c(C)c1CCC(=O)N1CCC(Cc2noc(-c3ccc(F)cc3)n2)C1 (stereo not drawn),"inconclusive: 44.7 µM [inhibitor, partial curve, poor fit]",–,–
CCCNC(=O)N(C1CCOCC1)C1CCN(S(=O)(=O)c2cc(F)ccc2C)CC1,–,inactive: -15.4%,–
OCC1(CN2CCCC2)CCN(Cc2ccc(Cl)c(F)c2)CC1,"inconclusive: 44.7 µM [inhibitor, partial curve, poor fit]",–,–

SMILES,Potency,"activity change, negative = cytotoxicity",outcome
O=C(Nc1ccccc1)N1CCCN(c2ccc3nnc(-c4ccccc4)n3n2)CC1,–,inactive: -16.7%,–
O=C(Cc1cccc(Cl)c1)N1CCCC(C(=O)N2CCC(c3nc4ncccc4[nH]3)CC2)C1 (stereo not drawn),"inconclusive: 89.1 µM [inhibitor, single point]",–,–
COc1cc(NC(=O)c2cnc(-c3ccc(F)cc3)nc2-c2ccncc2)cc(OC)c1,"inconclusive: 44.7 µM [inhibitor, partial curve, poor fit]",–,–
COc1ccc(-c2cc(N3CCC(NC(=O)c4ccc(C)c(C)c4)C3)n[nH]2)cc1 (stereo not drawn),active: 50.1 µM,–,–
O=C(NCCCN1CCCCC1)c1cccnc1N1CC2CC(C1)[C@H]1CCCC(=O)N1C2 (stereo partly drawn),–,inactive: 8.85%,–
Cc1ccc2c(c1)N(CCCC(=O)N1CCC(C)(c3noc(-c4ccccc4)n3)CC1)C(=O)CO2,active: 31.6 µM,–,–
Clc1ccc(CCNc2ncncn2)c(Cl)c1,active: 39.8 µM,–,–
O=C(c1cc2cc(Cl)ccc2[nH]1)N1C[C@@H](CO)[C@H](c2ccccn2)C1,"inconclusive: 50.1 µM [inhibitor, partial curve, poor fit]",–,–
Cc1cc(C(=O)NCC(=O)N2CCCCCNC(=O)CC2c2ccccc2)nn1C (stereo not drawn),–,inactive: -0.0688%,–
CN1CCN(C)c2cnc(-c3ccc(C(=O)N(C)C)cc3)cc2C1,"inconclusive: 112 µM [inhibitor, single point]",–,–
c1ccc(COc2ccccc2CN2CCC3(CCNCC3)C2)cc1,active: 28.2 µM,–,–
O=C1NC2(CCN(Cc3ccccc3C(F)(F)F)C2)COc2ccccc21 (stereo not drawn),"inconclusive: 89.1 µM [inhibitor, partial curve, poor fit]",–,–
O=C(c1cc(-c2ccc(Cl)cc2Cl)c2cccn2n1)N1CCN(c2ncccn2)CC1,"inconclusive: 50.1 µM [inhibitor, partial curve, poor fit]",–,–
CN(Cc1ccccc1)C(=O)C[C@@H]1c2nc(NC(=O)C(C)(C)C)sc2C[C@@H]2[C@](C)(CO)[C@H](O)CC[C@]21C,"inconclusive: 56.2 µM [inhibitor, partial curve, poor fit]",–,–
Cc1cc(C)cc(-c2ccc(CN3CCCC(N[S+](=O)([O-])c4cccs4)C3)cc2)c1 (stereo not drawn),active: 35.5 µM,–,–
CCOC(=O)C1CCCN(C(=O)c2nc3sccn3c2-c2cccc(C(F)(F)F)c2)C1 (stereo not drawn),"inconclusive: 89.1 µM [inhibitor, single point]",–,–
c1ccc(OCc2noc(-c3ccc(NCC4CCCCO4)nc3)n2)cc1 (stereo not drawn),"inconclusive: 50.1 µM [inhibitor, partial curve, poor fit]",–,–
O=C(CCc1conc1-c1ccccc1F)NCc1cccc(Br)c1,–,inactive: -20.9%,–
COc1ccc(-c2nc(C)nc3c2CN([S+](C)(=O)[O-])CC3)cc1,–,inactive: 2.07%,–
O=C(NCc1cccc(C(F)(F)F)c1)c1ccc2nnc(-c3cccc(C(F)(F)F)c3)n2c1,"inconclusive: 10 µM [inhibitor, full curve]",–,–
O=C(NC1CC1)c1ccc(Cn2ccn3nc4c(c3c2=O)CCCC4)cc1,"inconclusive: 50.1 µM [inhibitor, partial curve, poor fit]",–,–
